Experimental data taken from patent publication US20200308244A1 (ORIONIS BIOSCIENCES, published 2020).

T1: type I interferon-α/β receptor (IFNAR), composed of the IFNAR1 and IFNAR2 subunits (human, UniProt P17181 28-557; P48551 27-515)
T1 sequence (looked up) 1: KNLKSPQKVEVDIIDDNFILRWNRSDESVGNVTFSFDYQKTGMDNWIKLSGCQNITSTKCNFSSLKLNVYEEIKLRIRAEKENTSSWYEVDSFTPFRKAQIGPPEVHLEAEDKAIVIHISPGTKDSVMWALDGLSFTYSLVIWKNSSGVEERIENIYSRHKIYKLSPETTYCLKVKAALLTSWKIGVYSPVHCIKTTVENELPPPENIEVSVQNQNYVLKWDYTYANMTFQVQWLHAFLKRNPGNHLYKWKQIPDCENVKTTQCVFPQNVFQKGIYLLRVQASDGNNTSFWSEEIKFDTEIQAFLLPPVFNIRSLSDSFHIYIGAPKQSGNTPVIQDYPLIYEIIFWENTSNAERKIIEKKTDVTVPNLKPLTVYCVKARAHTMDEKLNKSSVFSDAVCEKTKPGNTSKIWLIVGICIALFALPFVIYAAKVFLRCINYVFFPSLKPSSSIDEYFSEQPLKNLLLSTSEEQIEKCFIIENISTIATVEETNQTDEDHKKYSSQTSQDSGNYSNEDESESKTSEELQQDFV
T1 sequence (looked up) 2: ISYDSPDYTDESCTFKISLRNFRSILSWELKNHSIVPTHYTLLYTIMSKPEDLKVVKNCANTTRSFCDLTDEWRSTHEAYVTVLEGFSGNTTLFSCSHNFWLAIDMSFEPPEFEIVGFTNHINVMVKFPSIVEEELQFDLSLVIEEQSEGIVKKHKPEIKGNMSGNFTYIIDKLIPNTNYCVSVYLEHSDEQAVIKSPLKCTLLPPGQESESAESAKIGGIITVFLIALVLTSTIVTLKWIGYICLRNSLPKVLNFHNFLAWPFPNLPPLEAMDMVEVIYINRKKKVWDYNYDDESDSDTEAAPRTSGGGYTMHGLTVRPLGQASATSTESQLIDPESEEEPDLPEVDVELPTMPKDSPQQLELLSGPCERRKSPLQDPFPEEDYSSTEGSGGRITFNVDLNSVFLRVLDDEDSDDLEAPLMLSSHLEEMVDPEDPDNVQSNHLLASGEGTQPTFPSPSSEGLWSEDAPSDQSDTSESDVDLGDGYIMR


Columns and labels:
Experiment in all cases: cell-based or functional assay
[1] = target: T1, type I interferon-α/β receptor (IFNAR), …
[2] = target: T2, human Clec9A (human, UniProt Q6UXN8 1-241)
[3] = target: T1, type I interferon-α/β receptor (IFNAR), …; remark: listed apart in the source
[4] = target: T2, human Clec9A; remark: listed apart in the source
T2 sequence (Q6UXN8 whole entry): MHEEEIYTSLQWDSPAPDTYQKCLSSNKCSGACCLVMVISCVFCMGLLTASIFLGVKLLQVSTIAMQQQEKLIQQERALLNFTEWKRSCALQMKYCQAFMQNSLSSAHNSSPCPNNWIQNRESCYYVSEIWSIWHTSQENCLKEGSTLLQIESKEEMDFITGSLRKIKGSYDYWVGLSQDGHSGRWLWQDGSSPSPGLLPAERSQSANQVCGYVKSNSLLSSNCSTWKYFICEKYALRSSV

Row | Binder | EC50 pSTAT1 on primary cDC1 [1] [pM] | selectivity window, pSTAT1 on cDC1 versus non-cDC1 cells [2] [fold] | EC50 6-16 reporter activity, HL116 [3] [nM] | EC50 6-16 reporter activity, HL116 (no reporter activity detected at the highest concentration) [3] [nM] | EC50 6-16 reporter activity, HL116-CLEC9A [3] [nM] | ratio of EC50 6-16 reporter activity, HL116 / HL116-CLEC9A [4] [ratio] | EC50 of luciferase (6-16 reporter) induction in HL116-hClec9A (target) cells [1] [ng/mL]
1 | R1CHCL50-5*GGS-human IgG1 Fc (hole; P-1479) + human IgG1 Fc (knob)-10*GGS-IFNα1(C86S) (P-2213) (Fc fusion) chain 1: QVQLVESGGGLVHPGGSLRLSCAASGSFSSINVMGWYRQAPGKERELVARITNLGLPNYADSVTGRFTISRDNAKNTVYLQMNSLKPEDTAVYYCYLVALKAEYWGQGTQVTVSSGGSGGSGGSGGSGGSDKTHTCPPCPAPEAAGGPSVFLFPPKPKDTLMISRTPEVTCVVVDVSHEDPEVKFNWYVDGVEVHNAKTKPREEQYNSTYRVVSVLTVLHQDWLNGKEYKCQVSNKALPAPIEKTISKAKGQPREPQVCTLPPSRDELTKNQVSLSCAVKGFYPSDIAVEWESNGQPENNYKTTPPVLDSDGSFFLVSKLTVDKSRWQQGNVFSCSVMHEALHNHYTQKSLSLSPGK chain 2: [human IgG1 Fc with changes left out here]GGSGGSGGSGGSGGSGGSGGSGGSGGSGGSCDLPETHSLDNRRTLMLLAQMSRISPSSCLMDRHDFGFPQEEFDGNQFQKAPAISVLHELIQQIFNLFTTKDSSAAWDEDLLDKFSTELYQQLNDLEACVMQEERVGETPLMNADSILAVKKYFRRITLYLTEKKYSPCAWEVVRAEIMRSLSLSTNLQERLRRKE | 20 | > 300 | > 1 |  |  |  | 
2 | R1CHCL50-5*GGS-human IgG1 Fc (hole; P-1479) + human IgG1 Fc (knob)-10*GGS-IFNα1(C86Y) (P-2216) (Fc fusion) chain 1: QVQLVESGGGLVHPGGSLRLSCAASGSFSSINVMGWYRQAPGKERELVARITNLGLPNYADSVTGRFTISRDNAKNTVYLQMNSLKPEDTAVYYCYLVALKAEYWGQGTQVTVSSGGSGGSGGSGGSGGSDKTHTCPPCPAPEAAGGPSVFLFPPKPKDTLMISRTPEVTCVVVDVSHEDPEVKFNWYVDGVEVHNAKTKPREEQYNSTYRVVSVLTVLHQDWLNGKEYKCQVSNKALPAPIEKTISKAKGQPREPQVCTLPPSRDELTKNQVSLSCAVKGFYPSDIAVEWESNGQPENNYKTTPPVLDSDGSFFLVSKLTVDKSRWQQGNVFSCSVMHEALHNHYTQKSLSLSPGK chain 2: [human IgG1 Fc with changes left out here]GGSGGSGGSGGSGGSGGSGGSGGSGGSGGSCDLPETHSLDNRRTLMLLAQMSRISPSSCLMDRHDFGFPQEEFDGNQFQKAPAISVLHELIQQIFNLFTTKDSSAAWDEDLLDKFYTELYQQLNDLEACVMQEERVGETPLMNADSILAVKKYFRRITLYLTEKKYSPCAWEVVRAEIMRSLSLSTNLQERLRRKE | 350 | > 100 | > 1 |  | 0.001 | > 1000 | 
3 | R1CHCL50-5*GGS-human IgG1 Fc (hole; P-1479) + human IgG1 Fc (knob)-10*GGS-IFNα1(C86S, A146G) (P-2214) (Fc fusion) chain 1: QVQLVESGGGLVHPGGSLRLSCAASGSFSSINVMGWYRQAPGKERELVARITNLGLPNYADSVTGRFTISRDNAKNTVYLQMNSLKPEDTAVYYCYLVALKAEYWGQGTQVTVSSGGSGGSGGSGGSGGSDKTHTCPPCPAPEAAGGPSVFLFPPKPKDTLMISRTPEVTCVVVDVSHEDPEVKFNWYVDGVEVHNAKTKPREEQYNSTYRVVSVLTVLHQDWLNGKEYKCQVSNKALPAPIEKTISKAKGQPREPQVCTLPPSRDELTKNQVSLSCAVKGFYPSDIAVEWESNGQPENNYKTTPPVLDSDGSFFLVSKLTVDKSRWQQGNVFSCSVMHEALHNHYTQKSLSLSPGK chain 2: [human IgG1 Fc with changes left out here]GGSGGSGGSGGSGGSGGSGGSGGSGGSGGSCDLPETHSLDNRRTLMLLAQMSRISPSSCLMDRHDFGFPQEEFDGNQFQKAPAISVLHELIQQIFNLFTTKDSSAAWDEDLLDKFSTELYQQLNDLEACVMQEERVGETPLMNADSILAVKKYFRRITLYLTEKKYSPCAWEVVRGEIMRSLSLSTNLQERLRRKE |  |  |  | > 1 | 0.019 | > 50 | 
4 | R1CHCL50-5*GGS-human IgG1 Fc (hole; P-1479) + human IgG1 Fc (knob)-10*GGS-IFNα1(C86S, M149V) (P-2215) (Fc fusion) chain 1: QVQLVESGGGLVHPGGSLRLSCAASGSFSSINVMGWYRQAPGKERELVARITNLGLPNYADSVTGRFTISRDNAKNTVYLQMNSLKPEDTAVYYCYLVALKAEYWGQGTQVTVSSGGSGGSGGSGGSGGSDKTHTCPPCPAPEAAGGPSVFLFPPKPKDTLMISRTPEVTCVVVDVSHEDPEVKFNWYVDGVEVHNAKTKPREEQYNSTYRVVSVLTVLHQDWLNGKEYKCQVSNKALPAPIEKTISKAKGQPREPQVCTLPPSRDELTKNQVSLSCAVKGFYPSDIAVEWESNGQPENNYKTTPPVLDSDGSFFLVSKLTVDKSRWQQGNVFSCSVMHEALHNHYTQKSLSLSPGK chain 2: [human IgG1 Fc with changes left out here]GGSGGSGGSGGSGGSGGSGGSGGSGGSGGSCDLPETHSLDNRRTLMLLAQMSRISPSSCLMDRHDFGFPQEEFDGNQFQKAPAISVLHELIQQIFNLFTTKDSSAAWDEDLLDKFSTELYQQLNDLEACVMQEERVGETPLMNADSILAVKKYFRRITLYLTEKKYSPCAWEVVRAEIVRSLSLSTNLQERLRRKE |  |  |  | > 1 | 0.06 | > 15 | 

The remaining lines, values ahead:

Row | EC50 pSTAT1 on primary cDC1 [1] [pM] | selectivity window, pSTAT1 on cDC1 versus non-cDC1 cells [2] [fold] | EC50 6-16 reporter activity, HL116 [3] [nM] | EC50 6-16 reporter activity, HL116 (no reporter activity detected at the highest concentration) [3] [nM] | EC50 6-16 reporter activity, HL116-CLEC9A [3] [nM] | ratio of EC50 6-16 reporter activity, HL116 / HL116-CLEC9A [4] [ratio] | EC50 of luciferase (6-16 reporter) induction in HL116-hClec9A (target) cells [1] [ng/mL] | Binder
5 |  |  |  | > 1 | 0.007 | > 140 |  | R1CHCL50-5*GGS-human IgG1 Fc (hole; P-1479) + human IgG1 Fc (knob)-10*GGS-IFNα1(C86Y, A146G) (P-2217) (Fc fusion) chain 1: QVQLVESGGGLVHPGGSLRLSCAASGSFSSINVMGWYRQAPGKERELVARITNLGLPNYADSVTGRFTISRDNAKNTVYLQMNSLKPEDTAVYYCYLVALKAEYWGQGTQVTVSSGGSGGSGGSGGSGGSDKTHTCPPCPAPEAAGGPSVFLFPPKPKDTLMISRTPEVTCVVVDVSHEDPEVKFNWYVDGVEVHNAKTKPREEQYNSTYRVVSVLTVLHQDWLNGKEYKCQVSNKALPAPIEKTISKAKGQPREPQVCTLPPSRDELTKNQVSLSCAVKGFYPSDIAVEWESNGQPENNYKTTPPVLDSDGSFFLVSKLTVDKSRWQQGNVFSCSVMHEALHNHYTQKSLSLSPGK chain 2: [human IgG1 Fc with changes left out here]GGSGGSGGSGGSGGSGGSGGSGGSGGSGGSCDLPETHSLDNRRTLMLLAQMSRISPSSCLMDRHDFGFPQEEFDGNQFQKAPAISVLHELIQQIFNLFTTKDSSAAWDEDLLDKFYTELYQQLNDLEACVMQEERVGETPLMNADSILAVKKYFRRITLYLTEKKYSPCAWEVVRGEIMRSLSLSTNLQERLRRKE
6 |  |  |  | > 1 | 0.015 | > 65 |  | R1CHCL50-5*GGS-human IgG1 Fc (hole; P-1479) + human IgG1 Fc (knob)-10*GGS-IFNα1(C86Y, M149V) (P-2218) (Fc fusion) chain 1: QVQLVESGGGLVHPGGSLRLSCAASGSFSSINVMGWYRQAPGKERELVARITNLGLPNYADSVTGRFTISRDNAKNTVYLQMNSLKPEDTAVYYCYLVALKAEYWGQGTQVTVSSGGSGGSGGSGGSGGSDKTHTCPPCPAPEAAGGPSVFLFPPKPKDTLMISRTPEVTCVVVDVSHEDPEVKFNWYVDGVEVHNAKTKPREEQYNSTYRVVSVLTVLHQDWLNGKEYKCQVSNKALPAPIEKTISKAKGQPREPQVCTLPPSRDELTKNQVSLSCAVKGFYPSDIAVEWESNGQPENNYKTTPPVLDSDGSFFLVSKLTVDKSRWQQGNVFSCSVMHEALHNHYTQKSLSLSPGK chain 2: [human IgG1 Fc with changes left out here]GGSGGSGGSGGSGGSGGSGGSGGSGGSGGSCDLPETHSLDNRRTLMLLAQMSRISPSSCLMDRHDFGFPQEEFDGNQFQKAPAISVLHELIQQIFNLFTTKDSSAAWDEDLLDKFYTELYQQLNDLEACVMQEERVGETPLMNADSILAVKKYFRRITLYLTEKKYSPCAWEVVRAEIVRSLSLSTNLQERLRRKE
7 |  |  | > 1 |  | 0.003 | > 330 | 0.3 | R1CHCL50-20*GGS-human IgG1 Fc (hole, effector knock-out; P-1451) + human IgG1 Fc (knob, effector knock-out)-20*GGS-IFNα1 (P-1852) (Fc fusion) chain 1: QVQLVESGGGLVHPGGSLRLSCAASGSFSSINVMGWYRQAPGKERELVARITNLGLPNYADSVTGRFTISRDNAKNTVYLQMNSLKPEDTAVYYCYLVALKAEYWGQGTQVTVSSGGSGGSGGSGGSGGSGGSGGSGGSGGSGGSGGSGGSGGSGGSGGSGGSGGSGGSGGSGGSDKTHTCPPCPAPEAAGGPSVFLFPPKPKDTLMISRTPEVTCVVVDVSHEDPEVKFNWYVDGVEVHNAKTKPREEQYNSTYRVVSVLTVLHQDWLNGKEYKCQVSNKALPAPIEKTISKAKGQPREPQVCTLPPSRDELTKNQVSLSCAVKGFYPSDIAVEWESNGQPENNYKTTPPVLDSDGSFFLVSKLTVDKSRWQQGNVFSCSVMHEALHNHYTQKSLSLSPGK chain 2: [human IgG1 Fc with changes left out here]GGSGGSGGSGGSGGSGGSGGSGGSGGSGGSGGSGGSGGSGGSGGSGGSGGSGGSGGSGGSCDLPETHSLDNRRTLMLLAQMSRISPSSCLMDRHDFGFPQEEFDGNQFQKAPAISVLHELIQQIFNLFTTKDSSAAWDEDLLDKFCTELYQQLNDLEACVMQEERVGETPLMNADSILAVKKYFRRITLYLTEKKYSPCAWEVVRAEIMRSLSLSTNLQERLRRKE
